“Also recorded” adds a separate entry of the source. Not every detail of the peptide structures is certain; ends, links or a residue may be inferred. Where a SMILES comes first, the peptide text is derived from it.
Experiments:
[1] = system: LH-induced ovulation; test: Inhibition of lutropin (LH)-induced ovulation in the Nembutal-blocked rat; type: in vivo; details: for Average number of Eggs, LH + Compound: Nembutal-blocked female rat
[2] = system: DNA-dependent RNA polymerases associated with chromatin prepared from the nuclei of the corpus luteum; test: Lutropin stimulation of RNA synthesis in corpora lutea chromatin ([8-14C]ATP incorporation); type: biochemical, bovine; details: for pmol[8-14C]ATP Incorporated: 5 min, 25° C.
[3] = biological target: T1, ovarian glucose-6-phosphate dehydrogenase (Homo sapiens, UniProt P11413); test: Inhibition of ovarian glucose-6-phosphate dehydrogenase; type: biochemical
T1 construct: from tissue

[4] = dose 100μg per injection, 1, 20 and 40 min after 10 μg LH i.v.
[5] = Lutropin + compound, each 10^-9 M, experiment with control 230, Lutropin alone 1290
[6] = substance alone, 10^-9 M, experiment with control 230
[7] = dose 50μg per injection, 1, 20 and 40 min after 10 μg LH i.v.
[8] = dose 200μg per injection, 1, 20 and 40 min after 10 μg LH i.v.

T1 sequence (P11413 whole entry): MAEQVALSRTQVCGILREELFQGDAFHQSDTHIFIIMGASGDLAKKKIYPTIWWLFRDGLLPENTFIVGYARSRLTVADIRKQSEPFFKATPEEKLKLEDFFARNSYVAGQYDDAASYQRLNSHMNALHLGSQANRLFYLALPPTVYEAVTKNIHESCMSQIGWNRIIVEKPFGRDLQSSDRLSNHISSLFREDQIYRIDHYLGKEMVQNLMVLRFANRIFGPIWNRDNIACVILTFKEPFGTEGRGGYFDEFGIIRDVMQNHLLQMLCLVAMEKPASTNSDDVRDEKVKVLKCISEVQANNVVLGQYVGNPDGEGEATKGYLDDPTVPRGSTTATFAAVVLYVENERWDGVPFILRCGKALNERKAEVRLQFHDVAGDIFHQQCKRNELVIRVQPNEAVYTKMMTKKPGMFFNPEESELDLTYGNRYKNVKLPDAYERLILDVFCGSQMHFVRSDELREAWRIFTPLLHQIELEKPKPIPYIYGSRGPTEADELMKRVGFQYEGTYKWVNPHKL

Compound	Average number of Eggs, LH + Compound [1, 4]	pmol[8-14C]ATP Incorporated [2, 5] [pmol]	pmol[8-14C]ATP Incorporated [2, 6] [pmol]	Average number of Eggs, LH + Compound [1, 7]	Average number of Eggs, LH + Compound [1, 8]	further results
CC(C)[C@H](NC(=O)CNC(=O)[C@@H](NC(=O)[C@@H]1CCCN1C(=O)[C@H](N)CO)C(C)C)C(N)=O [Compound E1, D-Ser-Pro-Val-Gly-Val-NH2] (HELM PEPTIDE1{[dS].P.V.G.V.[am]}$$$$V2.0)	8	1190	420	–	–	Inhibiting the action of hCG or LH / contraceptive effectiveness (in words) ([1]; general statement): relatively ineffective
CC(C)[C@H](NC(=O)CNC(=O)[C@@H](NC(=O)[C@@H]1CCCN1C(=O)CNC(=O)[C@H](Cc1ccc(O)cc1)NC(=O)[C@H](CCCNC(=N)N)NC(=O)[C@H](N)CO)C(C)C)C(N)=O [Compound E2, D-Ser-Arg-Tyr-Gly-Pro-Val-Gly-Val-NH2] (HELM PEPTIDE1{[dS].R.Y.G.P.V.G.V.[am]}$$$$V2.0)	0	260	220	0	0	Inhibition of ovarian glucose-6-phosphate dehydrogenase (in words) [3]: inhibits; Block of LH-induced ovulation (in words) ([1]; 50 to 200 μg per rat, 1 minute, 20 minutes and 40 minutes after LH): completely blocked ovulation; Inhibition of lutropin stimulation of RNA synthesis (in words) ([2]; 10^-9 M, bovine corpus luteum chromatin): inhibit; also recorded: reduced back to a value closely corresponding to the control level
CC(C)[C@H](NC(=O)[C@@H]1CCCN1C(=O)[C@H](CCCCN)NC(=O)CNC(=O)[C@H](Cc1ccc(O)cc1)NC(=O)[C@H](CCCNC(=N)N)NC(=O)[C@H](N)CO)C(=O)N[C@@H](CCCNC(=N)N)C(=O)N[C@@H](CO)C(=O)N[C@@H](CCCCN)C(=O)N[C@@H](CCCCN)C(N)=O [Compound IV, D-Ser-Arg-Tyr-Gly-Lys-Pro-Val-Arg-Ser-Lys-Lys-NH2] (HELM PEPTIDE1{[dS].R.Y.G.K.P.V.R.S.K.K.[am]}$$$$V2.0)	–	–	–	–	–	pmol[8-14C]ATP Incorporated ([2]; Lutropin + compound, each 10^-9 M, experiment with control 1790, Lutropin alone 3100): 2400 pmol; pmol[8-14C]ATP Incorporated ([2]; substance alone, 10^-9 M, experiment with control 1790): 2070 pmol
C[C@H](NC(=O)[C@H](CCCNC(=N)N)NC(=O)[C@H](N)CO)C(=O)N[C@@H](Cc1ccc(O)cc1)C(=O)N1CCC[C@H]1C(=O)N[C@H](C(=O)N1CCC[C@H]1C(=O)N[C@@H](C)C(=O)N[C@@H](CCCNC(=N)N)C(=O)N[C@@H](CO)C(=O)N[C@@H](CCCCN)C(=O)N[C@@H](CCCCN)C(N)=O)[C@@H](C)O [I, D-Ser-Arg-Ala-Tyr-Pro-Thr-Pro-Ala-Arg-Ser-Lys-Lys-NH2] (HELM PEPTIDE1{[dS].R.A.Y.P.T.P.A.R.S.K.K.[am]}$$$$V2.0)	8	–	–	6	–	Average number of Eggs, LH + Compound ([1]; dose 20μg per injection, 1, 20 and 40 min after 10 μg LH i.v.): 10
CC(C)[C@H](NC(=O)[C@@H]1CCCN1C(=O)[C@H](CCCCN)NC(=O)CNC(=O)[C@H](Cc1ccc(O)cc1)NC(=O)[C@H](CCCNC(=N)N)NC(=O)[C@H](N)CO)C(=O)NCC(=O)N[C@@H](CCCCN)C(=O)N[C@@H](CCCCN)C(=O)N[C@@H](CCCCN)C(=O)N[C@@H](CCCCN)C(N)=O [III, D-Ser-Arg-Tyr-Gly-Lys-Pro-Val-Gly-Lys-Lys-Lys-Lys-NH2] (HELM PEPTIDE1{[dS].R.Y.G.K.P.V.G.K.K.K.K.[am]}$$$$V2.0)	10	–	–	–	10	Average number of Eggs, LH + Compound ([1]; dose 300μg per injection, 1, 20 and 40 min after 10 μg LH i.v.): 5
